# According to publication PMC12040169 (PLOS Biology, 2025):
# The other results are listed elsewhere or left out.
# System: T1, C. trachomatis L2/434/Bu expressing GFP (CTL2-GFP)
# T1 construct: L2/434/Bu GFP intracellular growth in HeLa cells
# Design: species or system HeLa; C. trachomatis total inclusion area by high-content imaging, normalised to DMSO
# Details: total inclusion area; 28.5 h, 10 µM; inhibitor
# Outline: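 Imaging read-out: GFP inclusions and Hoechst nuclei captured by high-content imaging after fixation. Inclusion area/number = chlamydial growth; nuclei count = host cell viability. MIC calculated per earlier method.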
row,SMILES,% of control remaining
1,O=C(O)C(c1c[nH]c2ccccc12)N1CCN(Cc2ccncc2)CC1 (stereo not drawn) [CBK286624],97.7419
2,Cc1ccc(-c2cc3ccccn3c2C(=O)CSc2nncn2C)cc1 [CBK269580],87.609
3,COCCCNC(=O)c1cccs1 [CBK009164],91.6469
4,CC1CCN(Cc2ccc(-c3nnn(CC(=O)NCc4ccc(C(F)(F)F)nc4)n3)cc2)CC1 [CBK149721T],70.2149
5,CCN(CC)c1ccc(C(=O)Cn2c(=O)n(C(=O)CCCc3ccc(OC)cc3)c3ccccc32)cc1 [CBK106503],114.141
6,OCCN(Cc1cccnc1)Cc1cccn1-c1ccccc1Cl [CBK282936],108.266
7,CC1CCCCC1NC(=O)Cn1ncc2cccn2c1=O (stereo not drawn) [CBK283673],72.7047
8,O=C(Cn1c(C(F)(F)F)nc2ccccc21)NCCN1CCOCC1 [CBK267339],123.631
9,COCCNC(=O)c1ccc(-c2ccccc2)nc1N(C)C [CBK106049],95.8594
10,Cc1ccccc1NS(=O)(=O)c1cc(CN2C[C@@H](C)NC[C@@H]2C)c2occc2c1 [CBK103579T],93.5544
11,CCO[C@H]1COC[C@@H]1NC(=O)c1cccc2c1NCCC2 [CBK307113],40.7593
12,CCc1cc(C(=O)NC(c2ccc(F)cc2)c2nccn2C)n(C)n1 (stereo not drawn) [CBK281434],92.9347
13,CCNCCOc1c(C)cc(C)cc1C [CBK270137C],69.722
14,Cc1ccc(-c2nnc(CNC(=O)c3ccccc3-c3ccccc3)o2)s1 [CBK286298],100.524
15,O=C(Nc1cccc([N+](=O)[O-])c1)c1cc(S(=O)(=O)N2CCCCC2)ccc1Cl [CBK261367],104.432
16,COc1ccc(OCC(=O)NNC(=O)c2cnccn2)cc1 [CBK262619],97.9556
17,COCCC(=O)N1C[C@@H](c2cccc(F)c2)[C@@]2(CCCC(=O)N2)C1 [CBK283450],109.966
18,Brc1ccc(NCc2ccccn2)cc1 [CBK026347],63.8289
19,Cn1c(=O)n(C)c2cc(S(=O)(=O)NCC3(O)CCCNCC3)ccc21 (stereo not drawn) [CBK306777],81.2082
20,COc1ccc(Nc2nnc(-c3ccc(C(N)=O)cc3)c3ccccc23)cc1 [CBK264246],96.5462
21,CCOC(=O)C1CSCCN1C(=O)c1ccc(-n2nc(C)cc2C)cc1 (stereo not drawn) [CBK304517],57.1032
22,C=CCNC(=O)Cn1c(-c2ccco2)cc2cccnc21 [CBK282719],120.965
23,COc1ccc(-c2csc(NC(=O)c3ccccc3-c3ccccc3C(=O)O)n2)cc1 [CBK296076],89.7785
24,CCOc1ccc(OC(=O)c2ccc3c(c2)OCO3)cc1 [CBK149205],88.4726
25,N#Cc1sc2nc(C34CC5CC(CC(C5)C3)C4)ccc2c1N [CBK267455],112.056
26,Cc1cc(NC(=O)c2ccccc2)nc2c1c(=O)oc1ccccc12 [CBK291126],94.3359

row,SMILES,% of control remaining
1,O=C(NC1CCN(CC2(c3ccccc3)CC2)CC1)c1cc[nH]n1 [CBK285351],76.3962
2,O=C1NCCCC12CCN(Cc1cnc(N3CCOCC3)nc1)CC2 [CBK285528],80.5577
3,O=C1CC(Cc2ccccc2)C(=O)N1CCCn1ccnc1 (stereo not drawn) [CBK265123G],109.506
4,O=C(CN1CCCC2(CCN(C(=O)Cc3c[nH]c4ccccc34)C2)C1)c1ccsc1 (stereo not drawn) [CBK132053],105.369
5,Cc1cc2nn(-c3ccccc3)nc2cc1NC(=O)c1ccc(-c2cccc([N+](=O)[O-])c2)o1 [CBK263859],113.798
6,COc1ccc([C@@]23CC[C@@H](NC(=O)Nc4ccccc4C(F)(F)F)C[C@@H]2N(C)CC3)cc1OC [CBK036466T],98.9867
7,O=C(NCc1ccccc1)c1ccncc1 [CBK200189],101.34
8,COc1ccc(-c2cc([C@H]3CN4CC[C@H]3C[C@@H]4CNC(=O)c3ccco3)n(C)n2)cc1 [CBK289099],122.278
9,COc1cccc2cc(C(=O)C3=C(O)C(=O)N(CCN4CCOCC4)C3c3ccc(F)cc3)oc12 (stereo not drawn) [CBK266414],127.179
10,CCC(C)(C)c1ccc(S(=O)(=O)NCCCN2CCCC2)cc1 [CBK044126],92.5108
11,Cc1ccc2c(c1C)NC(=O)CC2c1ccc(F)cc1 (stereo not drawn) [CBK288221],112.841
12,Cc1cc(C(F)(F)F)nn1CCCNC(=O)c1cc(-c2ccccc2)nc2ccccc12 [CBK267755],110.091
13,CCCC/C=C/c1nccnc1NCCCO [CBK038006],114.767
14,Cc1[nH]c(=O)[nH]c(=O)c1S(=O)(=O)N1CCOCC1 [CBK261060],73.7285
15,Cc1cccc(-c2noc(CCC(=O)NCC3CCCO3)n2)c1 (stereo not drawn) [CBK268241],91.2497
16,O=C(Nc1ccc(S(=O)(=O)NCCN2CCOCC2)cc1)N1CCCC1 [CBK270015],86.1412
17,COc1ccc(OC)c(S(=O)(=O)N2CC[C@H]3CC(=O)N(CCN(C)C)CC[C@H]3C2)c1 [CBK288788],90.5898
18,CCCN(CCC#N)S(=O)(=O)c1ccc(C(C)C)cc1 [CBK043453],87.8267
19,COc1ccccc1OCc1ccc(Cl)s1 [CBK002782],24.4209
20,CCOC(=O)CSc1nc2ccccc2c(=O)n1Cc1ccccc1 [CBK054124],89.0994
21,CN(C(=O)CN1CCN(c2cc(-c3cc(C(F)(F)F)cc(C(F)(F)F)c3)ncn2)CC1)c1ccccc1 [CBK091125],126.878
22,COc1cc(CNCCO)cc(Br)c1OCc1cccnc1 [CBK269681C],89.3285
23,O=C(NC(NC1CCS(=O)(=O)C1)C(Cl)(Cl)Cl)c1ccc(Br)cc1 (stereo not drawn) [CBK261091],87.8057
24,COC(=O)c1ccc(NC(=O)CSc2nnc(-c3ccc(C)cc3)n2N)cc1 [CBK266114],89.7178
25,Cn1c(C(C)(C)C)cs/c1=N\NS(=O)(=O)c1ccccc1 [CBK006830B],58.1955
